Among all 310,000 compounds or so, about 14,000 (4.5%) showed an effect of 50% or more. The effect is printed as a negative number. The list shows a part of the results.
target: human ether-à-go-go-related gene (hERG) potassium channel (human, UniProt Q12809); test: primary screen, population patch clamp on CHO cells stably expressing hERG
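Further: peak tail current of the secondary pulse compared with the same well before compound.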

human ether-à-go-go-related gene (hERG) potassium channel, sequence (Q12809 whole entry, looked up): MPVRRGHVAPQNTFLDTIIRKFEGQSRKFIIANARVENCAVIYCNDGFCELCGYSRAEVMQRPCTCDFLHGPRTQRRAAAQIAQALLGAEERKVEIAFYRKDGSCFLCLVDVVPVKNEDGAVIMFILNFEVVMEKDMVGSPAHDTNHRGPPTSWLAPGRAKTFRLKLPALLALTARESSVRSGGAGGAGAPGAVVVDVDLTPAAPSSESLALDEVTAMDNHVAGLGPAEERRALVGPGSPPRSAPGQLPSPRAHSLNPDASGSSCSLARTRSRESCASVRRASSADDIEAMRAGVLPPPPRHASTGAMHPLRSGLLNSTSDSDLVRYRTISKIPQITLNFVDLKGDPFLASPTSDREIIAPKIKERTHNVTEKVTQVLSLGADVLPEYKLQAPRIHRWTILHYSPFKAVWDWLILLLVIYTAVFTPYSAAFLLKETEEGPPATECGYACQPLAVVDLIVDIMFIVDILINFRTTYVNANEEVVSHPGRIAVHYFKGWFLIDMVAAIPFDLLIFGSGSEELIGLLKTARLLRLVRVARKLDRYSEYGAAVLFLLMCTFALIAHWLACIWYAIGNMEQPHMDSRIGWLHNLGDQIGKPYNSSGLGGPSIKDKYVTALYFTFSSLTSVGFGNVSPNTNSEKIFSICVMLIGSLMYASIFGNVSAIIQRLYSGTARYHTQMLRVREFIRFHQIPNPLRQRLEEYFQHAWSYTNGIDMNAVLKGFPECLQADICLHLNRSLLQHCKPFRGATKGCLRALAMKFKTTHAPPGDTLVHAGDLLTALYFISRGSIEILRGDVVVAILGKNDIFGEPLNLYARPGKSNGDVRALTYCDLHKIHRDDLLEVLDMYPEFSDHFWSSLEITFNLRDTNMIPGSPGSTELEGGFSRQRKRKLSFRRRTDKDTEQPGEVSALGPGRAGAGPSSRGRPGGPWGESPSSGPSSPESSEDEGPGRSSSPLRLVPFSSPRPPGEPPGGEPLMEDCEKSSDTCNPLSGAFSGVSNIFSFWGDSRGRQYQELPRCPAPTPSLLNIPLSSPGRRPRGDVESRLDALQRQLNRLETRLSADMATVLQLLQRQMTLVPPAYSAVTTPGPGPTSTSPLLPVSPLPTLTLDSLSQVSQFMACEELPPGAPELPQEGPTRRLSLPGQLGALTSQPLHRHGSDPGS

Row | SMILES | hERG current change (%, negative = inhibition) at 10uM
1 | NC(=O)NC(CC(=O)NCc1ccc2c(c1)OCO2)c1ccccc1Cl (centres unmarked) | 16.7%
2 | Cc1ccc(C)c(NC(=O)c2ccc(OCc3c(C)noc3C)cc2)c1 | -0.266%
3 | CCCCC(=O)Nc1ccccc1C#N | 4.77%
4 | COc1ccc(Nc2nc(NCC3CCCO3)nc(N)c2[N+](=O)[O-])cc1 (centres unmarked) | -8.31%
5 | Cc1nn(-c2ccccc2)c(C)c1/C=N/NC(=O)CSc1nc2ccccc2c(=O)n1-c1ccccc1 | 6.86%
6 | Cc1ccc(-c2nn(-c3ccccc3)cc2/C=N/NC(=O)c2ccncc2)o1 | 1.47%
7 | CC1(C)Cc2c(sc3nc(SCC(=O)NCc4ccccc4)n(-c4ccccc4)c(=O)c23)CS1 | 7.62%
8 | CC(Oc1ccc(Cl)cc1)C(=O)N/N=C/c1ccsc1 (centres unmarked) | 4.59%
9 | O=C(/C=C/c1ccccc1)Nc1nc(-c2ccncc2)cs1 | 3.68%
10 | CCc1ccc(NC(=O)Cc2ccc(OC)cc2)cc1 | 0.00588%
11 | CCCC12C(=O)C(C)(C(c3ccccc3)=C1c1ccccc1)C1C(=O)N(c3ccc(C)cc3)C(=O)C12 (centres unmarked) | 4.22%
12 | Cc1cccc(NC(=O)CSc2ccc(-c3ccco3)nn2)c1 | -59.5%
13 | Cc1nnsc1C(=O)NNC(=O)Nc1ccccc1 | 12.3%
14 | O=C(OC1CCOC1=O)c1ccc(CO)cc1 (centres unmarked) | 27.4%
15 | CCOc1ccc(C(=O)Nc2ncccc2Cl)cc1.Cl | 7.67%
16 | CCOc1ccc(CN(C(=O)c2cccs2)C2CCS(=O)(=O)C2)cc1 (centres unmarked) | -13.6%
17 | CSc1ccccc1C(=O)N1CCCCC1 | -9.98%
18 | O=C(Nc1ccc(N2CCCC2)cc1)c1cccc(-c2cc3ccccc3oc2=O)c1 | 17.8%
19 | COc1ccc(-c2c(C(C)=O)c(C)nc3sc4c(=N)n(N)cnc4c23)cc1 | 3.48%

Row | SMILES | hERG current change (%, negative = inhibition) at 10uM
20 | COc1cc(/C=N/NC(=O)CNS(=O)(=O)c2ccc(C)cc2)cc(OC)c1OC | 12.1%
21 | Cc1c(Cl)c([N+](=O)[O-])nn1CC(=O)NC(C)c1ccccc1 (centres unmarked) | 9.4%
22 | CN(C)c1nc(Cl)nc(NCCOc2ccccc2)n1 | 9.52%
23 | O=C(O)C(=O)O.OC(CNC1CCCCCCC1)c1ccccc1 (centres unmarked) | 2.95%
24 | CCOc1ccc(CCNC(=O)C2CCN(c3nn4c(=O)cc(C)nc4s3)CC2)cc1 | -23.3%
25 | CC(=O)Nc1ccc(NC(=S)NC(=O)c2cc3ccccc3o2)cc1 | 8.36%
26 | COc1ccc(-c2[nH]ncc2CN(C)Cc2ccccn2)c(OC)c1 | -10.2%
27 | COc1ccc(C)cc1NC(=O)CSc1nnc(-c2cc3cccc(OC)c3o2)n1N | 21.9%
28 | CCOC(=O)c1c(NC(NC(C)=O)C(Cl)(Cl)Cl)sc(C(C)=O)c1C (centres unmarked) | -11.1%
29 | COc1cc(S(=O)(=O)NC2CCSc3ccccc32)ccc1NC(C)=O (centres unmarked) | 21.7%
30 | Fc1cccc(Cl)c1CSc1nnc2ccccn12 | 9.48%
31 | Cc1cccnc1NC1OC(=O)c2ccccc21 (centres unmarked) | 3.66%
32 | COc1ccc(CCC(=O)Nc2ccc(S(=O)(=O)N3CCCC3)cc2)cc1OC | -11.8%
33 | CC1CCN(C(=O)CSc2nnc(N)s2)CC1 | 29.8%
34 | CCCn1c(N)[n+](CC(=O)c2ccco2)c2ccccc21.[Br-] | -11.1%
35 | Cc1ccccc1-n1c(CSC(=N)N)nc2ccccc2c1=O.Cl | -17.1%
36 | Cc1cccc(SC2CCN(Cc3nc(CC4CC4)no3)CC2)c1 | -17.9%
37 | CC1(C)S[C@@H]2[C@H](NC(=O)COc3ccccc3)C(=O)N2C1C(=O)OCC1CCCCC1 (some centres unmarked) | -46%
38 | COc1ccc2nc(N/C(N)=N/C(=S)Nc3ccccc3)nc(C)c2c1 | 15.2%

Row | SMILES | hERG current change (%, negative = inhibition) at 10uM
39 | O=C(Cn1cnc2ccccc2c1=O)NCCC(=O)Nc1ccc(F)cc1 | 25.4%
40 | COC(=O)c1ccc(/C=C2\Oc3ccccc3NC2=O)cc1 | 15.5%
41 | COc1ccc(OCc2nnc(SCC(=O)Nc3ccccc3F)o2)cc1 | 14.9%
42 | O=C(CSc1nc2ccccc2c(=O)[nH]1)c1ccc(O)c(O)c1 | -4.84%
43 | O=C(CSc1nnc(-c2cccnc2)o1)N1CCCCC1 | 9.4%
44 | C/C(CC(=O)NCc1ccc(Cl)cc1)=N\NC(=O)c1ccccc1F | -19.5%
45 | CC(=O)c1ccc(-c2cccc(-c3nc4ccccn4c3NC3CCCCC3)c2)cc1.O=C(O)C(F)(F)F | 4.12%
46 | COc1cc(C(=O)NCc2nnc(SCC(=O)N3CCCC3)o2)cc(OC)c1OC | 12.5%
47 | O=C(O)C(=O)O.c1ccc(-c2ccccc2OCCCN2CCCCCC2)cc1 | -80.1%
48 | Cc1ccc(C(=O)/C=C/Nc2ccc(S(=O)(=O)Nc3onc(C)c3C)cc2)cc1 | -5.96%
49 | Brc1cnc(N2CCCCC2)nc1N1CCOCC1 | -6.45%
50 | COc1ccc(OC)c(C(=O)c2c(C)oc3cc(Br)c(O)c(CN(C)C)c23)c1.Cl.O | -33.4%
51 | Cc1cc(C)cc(NC(=O)CN(C)S(=O)(=O)c2cnc[nH]2)c1 | 12.6%
52 | CC(=O)c1c(C)[nH]c(C(=O)OCC(=O)N2CC(=O)Nc3ccccc32)c1C | 5.94%
53 | COc1ccc(NC(=O)C23CC4CC(C2)CC(n2cnc(Br)n2)(C4)C3)cc1Cl | 3.08%
54 | COc1ccc(C(=O)NCC(=O)NCC(c2ccco2)N(C)C)cc1OC (centres unmarked) | -9.54%
55 | CCOC(=O)c1cc(NC(=O)N(CC)CC)c(C)nc1C | 5.59%
56 | Cc1ccc(F)cc1CNC(=O)C1CCC(=O)N(CC2CCCCC2)C1 (centres unmarked) | 3.34%

Reference: paper PMC4336329 (PLoS ONE, 2015)
